T1: RBFOX1 RRM RbFoxmut (Fox-RRM*) (Homo sapiens, UniProt Q9NWB1 109-208, R118D;E147R;N151S;E152T)
T1 sequence: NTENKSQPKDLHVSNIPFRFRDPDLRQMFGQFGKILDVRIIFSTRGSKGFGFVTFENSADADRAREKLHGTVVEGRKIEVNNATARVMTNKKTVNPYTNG

B1: ACGGGUU (DNA:RNA)
RNA: GGGAGACCGGAAUUCAGAUUGUCCACGGGUUUUAAAUCCCGUCGUAGCCACCA
DNA 1: CAATCTGAATTCCGGTCTCCC
DNA 2: TGGTGGCTACGACGGGATT
B2: CCAUUUU (DNA:RNA)
RNA: B1 RNA with A25C, G27A, G28U, G29U
DNA 1: CAATCTGAATTCCGGTCTCCC
DNA 2: TGGTGGCTACGACGGGATT
B3: CACCGGC (DNA:RNA)
RNA: B1 RNA with A25C, C26A, G27C, G28C, U30G, U31C
DNA 1: CAATCTGAATTCCGGTCTCCC
DNA 2: TGGTGGCTACGACGGGATT
B4: UCAUUCA (DNA:RNA)
RNA: B1 RNA with A25U, G27A, G28U, G29U, U30C, U31A
DNA 1: CAATCTGAATTCCGGTCTCCC
DNA 2: TGGTGGCTACGACGGGATT
B5: CCACCCG (DNA:RNA)
RNA: B1 RNA with A25C, G27A, G28C, G29C, U30C, U31G
DNA 1: CAATCTGAATTCCGGTCTCCC
DNA 2: TGGTGGCTACGACGGGATT
B6: GACGAAA (DNA:RNA)
RNA: B1 RNA with A25G, C26A, G27C, G29A, U30A, U31A
DNA 1: CAATCTGAATTCCGGTCTCCC
DNA 2: TGGTGGCTACGACGGGATT
B7: CGCAGGG (DNA:RNA)
RNA: B1 RNA with A25C, C26G, G27C, G28A, U30G, U31G
DNA 1: CAATCTGAATTCCGGTCTCCC
DNA 2: TGGTGGCTACGACGGGATT
B8: AACGCAG (DNA:RNA)
RNA: B1 RNA with C26A, G27C, G29C, U30A, U31G
DNA 1: CAATCTGAATTCCGGTCTCCC
DNA 2: TGGTGGCTACGACGGGATT
B9: AACCGCU (DNA:RNA)
RNA: B1 RNA with C26A, G27C, G28C, U30C
DNA 1: CAATCTGAATTCCGGTCTCCC
DNA 2: TGGTGGCTACGACGGGATT
B10: CCACAAG (DNA:RNA)
RNA: B1 RNA with A25C, G27A, G28C, G29A, U30A, U31G
DNA 1: CAATCTGAATTCCGGTCTCCC
DNA 2: TGGTGGCTACGACGGGATT
B11: CGCGUCU (DNA:RNA)
RNA: B1 RNA with A25C, C26G, G27C, G29U, U30C
DNA 1: CAATCTGAATTCCGGTCTCCC
DNA 2: TGGTGGCTACGACGGGATT
B12: AAGUUAC (DNA:RNA)
RNA: B1 RNA with C26A, G28U, G29U, U30A, U31C
DNA 1: CAATCTGAATTCCGGTCTCCC
DNA 2: TGGTGGCTACGACGGGATT
B13: UGGUCUG (DNA:RNA)
RNA: B1 RNA with A25U, C26G, G28U, G29C, U31G
DNA 1: CAATCTGAATTCCGGTCTCCC
DNA 2: TGGTGGCTACGACGGGATT
B14: CACCGCG (DNA:RNA)
RNA: B1 RNA with A25C, C26A, G27C, G28C, U30C, U31G
DNA 1: CAATCTGAATTCCGGTCTCCC
DNA 2: TGGTGGCTACGACGGGATT
B15: CUCACUA (DNA:RNA)
RNA: B1 RNA with A25C, C26U, G27C, G28A, G29C, U31A
DNA 1: CAATCTGAATTCCGGTCTCCC
DNA 2: TGGTGGCTACGACGGGATT
B16: UAAAAUA (DNA:RNA)
RNA: B1 RNA with A25U, C26A, G27A, G28A, G29A, U31A
DNA 1: CAATCTGAATTCCGGTCTCCC
DNA 2: TGGTGGCTACGACGGGATT
B17: UUACGAA (DNA:RNA)
RNA: B1 RNA with A25U, C26U, G27A, G28C, U30A, U31A
DNA 1: CAATCTGAATTCCGGTCTCCC
DNA 2: TGGTGGCTACGACGGGATT
B18: UUGUGUA (DNA:RNA)
RNA: B1 RNA with A25U, C26U, G28U, U31A
DNA 1: CAATCTGAATTCCGGTCTCCC
DNA 2: TGGTGGCTACGACGGGATT
B19: AUCCGCU (DNA:RNA)
RNA: B1 RNA with C26U, G27C, G28C, U30C
DNA 1: CAATCTGAATTCCGGTCTCCC
DNA 2: TGGTGGCTACGACGGGATT
B20: CCGUAAA (DNA:RNA)
RNA: B1 RNA with A25C, G28U, G29A, U30A, U31A
DNA 1: CAATCTGAATTCCGGTCTCCC
DNA 2: TGGTGGCTACGACGGGATT
B21: ACGCCAG (DNA:RNA)
RNA: B1 RNA with G28C, G29C, U30A, U31G
DNA 1: CAATCTGAATTCCGGTCTCCC
DNA 2: TGGTGGCTACGACGGGATT
B22: GCGUUUC (DNA:RNA)
RNA: B1 RNA with A25G, G28U, G29U, U31C
DNA 1: CAATCTGAATTCCGGTCTCCC
DNA 2: TGGTGGCTACGACGGGATT
B23: GACAGCU (DNA:RNA)
RNA: B1 RNA with A25G, C26A, G27C, G28A, U30C
DNA 1: CAATCTGAATTCCGGTCTCCC
DNA 2: TGGTGGCTACGACGGGATT
B24: GAAUCCG (DNA:RNA)
RNA: GGGAGACCGGAAUUCAGAUUGUCCGAAUCCGUUAAAUCCCGUCGUAGCCACCA
DNA 1: CAATCTGAATTCCGGTCTCCC
DNA 2: TGGTGGCTACGACGGGATT
B25: ACUCCUA (DNA:RNA)
RNA: B1 RNA with G27U, G28C, G29C, U31A
DNA 1: CAATCTGAATTCCGGTCTCCC
DNA 2: TGGTGGCTACGACGGGATT
B26: AGACACG (DNA:RNA)
RNA: B24 RNA with G25A, A26G, U28C, C29A
DNA 1: CAATCTGAATTCCGGTCTCCC
DNA 2: TGGTGGCTACGACGGGATT
B27: GCUCCAC (DNA:RNA)
RNA: B24 RNA with A26C, A27U, U28C, C30A, G31C
DNA 1: CAATCTGAATTCCGGTCTCCC
DNA 2: TGGTGGCTACGACGGGATT
B28: CUAGAUA (DNA:RNA)
RNA: B1 RNA with A25C, C26U, G27A, G29A, U31A
DNA 1: CAATCTGAATTCCGGTCTCCC
DNA 2: TGGTGGCTACGACGGGATT
B29: UUCGUCA (DNA:RNA)
RNA: B1 RNA with A25U, C26U, G27C, G29U, U30C, U31A
DNA 1: CAATCTGAATTCCGGTCTCCC
DNA 2: TGGTGGCTACGACGGGATT
B30: UGGCGCC (DNA:RNA)
RNA: B1 RNA with A25U, C26G, G28C, U30C, U31C
DNA 1: CAATCTGAATTCCGGTCTCCC
DNA 2: TGGTGGCTACGACGGGATT
B31: CAGCUGA (DNA:RNA)
RNA: B1 RNA with A25C, C26A, G28C, G29U, U30G, U31A
DNA 1: CAATCTGAATTCCGGTCTCCC
DNA 2: TGGTGGCTACGACGGGATT

Changes are numbered by the printed parent chain; changes in the protein carry UniProt numbers. Some of the results follow.

The target of this assay is T1, RBFOX1 RRM RbFoxmut (Fox-RRM*). Briefly: EMSA; HiTS-Eq, 1 nM pool, 10 min; buffer printed only for the single-RNA assays: 10 mM Tris pH 7.5, 150 mM NaCl, 3.4 mM EDTA, 0.001% NP-40, 30 C. The settings on record: tags: His6 N-terminal (pET28a); label: 5' 32P. In outline: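 A pool of RNA with 7 randomized nucleotides, 5′-radiolabelled and with DNA-annealed flanks, was equilibrated at 1 nM for 10 min in 50 µL with purified RbFox RRM, wild type or mutant, across increasing protein concentrations. Free RNA was separated by 8% native PAGE, excised, reverse-transcribed, barcoded by PCR and sequenced. Relative association constants were obtained from read-count changes of each RNA species versus the control reaction and normalised to the cognate motif.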
As to B1, the binding signal is 0.14 KA relative to UGCAUGU.

In the case of B2, the binding signal was 0.0736 KA relative to UGCAUGU.

B3: the binding signal is 0.0862 KA relative to UGCAUGU.

For the molecule B4, the binding signal was 0.111 KA relative to UGCAUGU.

For B5, the binding signal was 0.112 KA relative to UGCAUGU.

Regarding B6, the binding signal was 0.085 KA relative to UGCAUGU.

Turning to B7, the binding signal was 0.0806 KA relative to UGCAUGU.

With B8, the binding signal is 0.0529 KA relative to UGCAUGU.

Consider B9, for which the binding signal was 0.072 KA relative to UGCAUGU.

As to B10, the binding signal is 0.107 KA relative to UGCAUGU.

In the case of B11, the binding signal is 0.0875 KA relative to UGCAUGU.

On to B12, for which the binding signal was 0.0976 KA relative to UGCAUGU.

Regarding B13, the binding signal was 0.374 KA relative to UGCAUGU.

B14: the binding signal is 0.124 KA relative to UGCAUGU.

With B15, the binding signal was 0.105 KA relative to UGCAUGU.

Take B16: the binding signal is 0.074 KA relative to UGCAUGU.

With B17, the binding signal is 0.0964 KA relative to UGCAUGU.

With B18, the binding signal was 0.315 KA relative to UGCAUGU.

For the molecule B19, the binding signal was 0.121 KA relative to UGCAUGU.

As to B20, the binding signal was 0.101 KA relative to UGCAUGU.

As to B21, the binding signal was 0.117 KA relative to UGCAUGU.

With B22, the binding signal was 0.135 KA relative to UGCAUGU.

Take B23: the binding signal was 0.0646 KA relative to UGCAUGU.

As for B24, the binding signal is 0.219 KA relative to UGCAUGU.

With B25, the binding signal was 0.0629 KA relative to UGCAUGU.

On to B26, for which the binding signal was 0.0776 KA relative to UGCAUGU.

As to B27, the binding signal is 0.0793 KA relative to UGCAUGU.

For the molecule B28, the binding signal is 0.091 KA relative to UGCAUGU.

Consider B29, for which the binding signal was 0.123 KA relative to UGCAUGU.

As for B30, the binding signal is 0.139 KA relative to UGCAUGU.

On to B31, for which the binding signal was 0.0845 KA relative to UGCAUGU.

Values taken from PMC9911399, “Two distinct binding modes provide the RNA-binding protein RbFox with extraordinary sequence specificity”.
